# Measurements reported in PubChem BioAssay AID504333 (National Center for Advancing Translational Sciences (NCATS), 2011).
# Among all 360,000 compounds or so, about 16,000 (4.4%) were called active. Inconclusive means that the source gave no clear call. Such entries were picked first, then a sample of the others. Calls come from the whole dose curve; as a rule, active = well fitted inhibition curve with a large enough effect; inconclusive = small, poorly fitted or top-dose-only effect; inactive = no such curve, though single readings can be large or run the other way. Where the call is inconclusive, the potency comes from a doubtful curve fit.
# Molecular target: Bromodomain adjacent to zinc finger domain protein 2B (Homo sapiens) (UniProt Q9UIF8)
# Assay: qHTS Assay for Inhibitors of BAZ2B; note: nearly all actives have a fitted effect of over 60% in size
# Details: AlphaScreen BAZ2B-H3K14Ac peptide displacement; activity change, negative = inhibition: at 114 µM (top of the series) unless noted
# Procedure, shortened: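 Compounds, titrated to a top concentration of 110 uM, were incubated 30 min at room temperature with preformed BAZ2B/acetyl-K14 H3 peptide complex (50 nM each). Proximity signal was measured by AlphaScreen after 20 min with beads.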
# % is set by controls: 0 for no effect and ±100 for the full control effect; potency is the fitted concentration of half-maximal effect; tags give direction and shape of the fitted curve.
# Chain of UniProt Q9UIF8 (Q9UIF8 whole entry, looked up, the tested form may be a part): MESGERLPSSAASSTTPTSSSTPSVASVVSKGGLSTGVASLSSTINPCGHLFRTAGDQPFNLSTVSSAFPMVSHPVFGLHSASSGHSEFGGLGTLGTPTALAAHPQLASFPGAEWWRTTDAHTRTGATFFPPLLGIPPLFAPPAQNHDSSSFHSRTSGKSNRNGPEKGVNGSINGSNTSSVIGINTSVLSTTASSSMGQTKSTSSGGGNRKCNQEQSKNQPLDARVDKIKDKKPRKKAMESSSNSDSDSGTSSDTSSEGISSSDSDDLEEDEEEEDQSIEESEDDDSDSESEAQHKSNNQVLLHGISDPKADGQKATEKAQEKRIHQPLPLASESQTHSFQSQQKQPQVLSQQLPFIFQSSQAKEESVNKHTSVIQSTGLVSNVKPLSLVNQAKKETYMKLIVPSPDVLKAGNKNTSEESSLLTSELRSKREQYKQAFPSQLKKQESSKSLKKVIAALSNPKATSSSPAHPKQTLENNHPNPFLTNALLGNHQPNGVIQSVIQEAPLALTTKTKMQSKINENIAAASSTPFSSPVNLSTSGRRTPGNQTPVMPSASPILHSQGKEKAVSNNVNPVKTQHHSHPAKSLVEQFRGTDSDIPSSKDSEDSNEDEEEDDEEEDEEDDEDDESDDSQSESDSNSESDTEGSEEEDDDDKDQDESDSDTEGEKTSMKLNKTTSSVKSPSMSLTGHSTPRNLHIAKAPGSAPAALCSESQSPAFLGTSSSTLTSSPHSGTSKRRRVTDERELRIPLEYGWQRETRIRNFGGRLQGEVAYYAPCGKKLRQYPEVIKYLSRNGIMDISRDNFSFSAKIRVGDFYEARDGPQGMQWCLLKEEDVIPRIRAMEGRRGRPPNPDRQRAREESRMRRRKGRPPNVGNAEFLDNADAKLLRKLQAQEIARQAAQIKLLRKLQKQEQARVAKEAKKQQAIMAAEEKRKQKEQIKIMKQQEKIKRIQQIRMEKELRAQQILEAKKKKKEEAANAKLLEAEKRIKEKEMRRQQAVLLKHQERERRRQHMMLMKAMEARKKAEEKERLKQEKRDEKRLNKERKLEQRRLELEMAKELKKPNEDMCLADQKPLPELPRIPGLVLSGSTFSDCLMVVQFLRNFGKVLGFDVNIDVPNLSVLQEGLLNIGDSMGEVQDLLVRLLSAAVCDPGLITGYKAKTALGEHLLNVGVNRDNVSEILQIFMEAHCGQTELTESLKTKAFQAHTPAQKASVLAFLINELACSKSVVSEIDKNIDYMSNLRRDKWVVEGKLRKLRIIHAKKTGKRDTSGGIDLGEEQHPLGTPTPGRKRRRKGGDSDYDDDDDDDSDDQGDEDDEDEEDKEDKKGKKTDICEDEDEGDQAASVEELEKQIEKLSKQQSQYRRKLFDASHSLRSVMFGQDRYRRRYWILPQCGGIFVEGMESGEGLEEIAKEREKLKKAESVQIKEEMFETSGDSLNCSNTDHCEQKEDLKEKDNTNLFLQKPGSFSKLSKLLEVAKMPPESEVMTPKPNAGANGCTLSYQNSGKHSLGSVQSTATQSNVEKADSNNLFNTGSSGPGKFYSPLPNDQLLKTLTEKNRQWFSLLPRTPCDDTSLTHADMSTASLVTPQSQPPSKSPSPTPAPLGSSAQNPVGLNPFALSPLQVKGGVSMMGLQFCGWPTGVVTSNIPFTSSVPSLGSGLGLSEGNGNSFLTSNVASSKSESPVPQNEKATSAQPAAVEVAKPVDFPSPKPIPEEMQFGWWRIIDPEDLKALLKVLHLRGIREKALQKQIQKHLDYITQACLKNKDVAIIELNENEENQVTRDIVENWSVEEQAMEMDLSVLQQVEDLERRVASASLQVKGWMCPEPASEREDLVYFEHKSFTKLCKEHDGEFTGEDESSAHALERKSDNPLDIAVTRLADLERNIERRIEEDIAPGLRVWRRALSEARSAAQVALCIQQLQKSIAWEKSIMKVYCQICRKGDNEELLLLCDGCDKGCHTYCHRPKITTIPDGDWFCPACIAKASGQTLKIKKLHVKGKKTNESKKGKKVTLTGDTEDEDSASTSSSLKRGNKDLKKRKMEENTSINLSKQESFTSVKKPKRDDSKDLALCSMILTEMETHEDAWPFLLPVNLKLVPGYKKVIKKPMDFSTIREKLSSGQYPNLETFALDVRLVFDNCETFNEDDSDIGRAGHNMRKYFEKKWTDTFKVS
SMILES,Potency,"activity change, negative = inhibition"
O=C(O)c1ccc(-c2nc(-c3ccccc3Cl)cs2)cc1,"inconclusive: 89.1 µM [inhibitor, single point]",
CC1(C)CC(=O)C(C(O)c2ccccc2)C(C)(C)N1 (stereo not given),,inactive: 1.22%
CCCCN1CC(O)=C(c2nc3ccccc3s2)C1=N,,inactive: 3.49%
CCc1ccc(C(=O)COC(=O)c2cccc(N3C(=O)c4c(C)nc5ccccc5c4C3=O)c2)cc1,"inconclusive: 35.5 µM [inhibitor, partial curve]",
CC(=O)N1CCN(S(=O)(=O)c2cccc(C(=O)Nc3ccc(F)c(F)c3)c2)CC1,,inactive: 1.12%
CO[C@H]1C=CO[C@@]2(C)Oc3c(C)c(O)c4c(O)c(c(C=NN5CCN(C)CC5)c(O)c4c3C2=O)NC(=O)C(C)=CC=C[C@H](C)[C@H](O)[C@@H](C)[C@@H](O)[C@@H](C)[C@H](OC(C)=O)[C@@H]1C,active: 44.7 µM,
CC(=O)c1c(C)[nH]c(C(=O)NCCc2cccc(C)c2)c1C,"inconclusive: 50.1 µM [inhibitor, partial curve]",
COCCNCCCOc1ccc(Br)cc1Cl,"inconclusive: 89.1 µM [inhibitor, single point]",
Cc1cccc(C)c1OCc1nc2ccccc2c(=O)n1/N=C/c1ccc(OCC(=O)O)cc1,"inconclusive: 89.1 µM [inhibitor, partial curve]",
CC1=NN(c2ccccc2)C(=O)/C1=C/C=C/c1ccccc1,active: 7.94 µM,
CCc1nc(Nc2ccc3c(c2)OCCO3)c2oc3ccccc3c2n1,"inconclusive: 22.4 µM [inhibitor, partial curve]",
CCOCCCn1c(SC(C(=O)Nc2cc(C)ccc2C)c2ccccc2)nnc1-c1ccc(Cl)cc1 (stereo not given),,inactive: -1.62%
Cc1occc(=O)c1OCc1ccccc1,"inconclusive: 89.1 µM [inhibitor, single point]",
O=C(CCCN1C(=O)/C(=C\c2cccs2)SC1=S)Nc1ccc(O)cc1C(=O)O,"inconclusive: 63.1 µM [inhibitor, partial curve]",
COc1cc([C@H]2Oc3cc([C@H]4Oc5cc(O)cc(O)c5C(=O)[C@@H]4O)ccc3O[C@@H]2CO)ccc1O,"inconclusive: 89.1 µM [inhibitor, single point]",
O=C(Cc1cccs1)Nc1ccc(C(=O)O)cc1,,inactive: 65.6%
Cc1ccc(-c2nc3sc(C(N)=O)c(N)c3c3c2CCCC3)cc1,,inactive: -31.1%
CCCCOc1ccc(CCC(=O)N/N=C/c2ccco2)cc1,"inconclusive: 79.4 µM [inhibitor, single point]",
O=C(Cn1c(=O)oc2cc(S(=O)(=O)NCc3ccccc3)ccc21)NCc1ccccc1Cl,,inactive: -5.52%
CCC(=O)NC(c1ccc(N(C)C)cc1)c1c(O)ccc2ccccc12 (stereo not given),active: 28.2 µM,
Cc1ccc2scc(N3CCCCC3)c(=O)c2c1,"inconclusive: 79.4 µM [inhibitor, single point]",
Cc1cc(C)cc(C(=O)n2cnnc2N)c1,,inactive: 9.55%
Clc1ccc(Cl)c(OCCCCN2CCCCC2)c1,"inconclusive: 89.1 µM [inhibitor, single point]",

SMILES,Potency,"activity change, negative = inhibition"
CCCCCCCCn1c2c(c(=N)c3ccccc31)CCC2,,inactive: -1.46%
O=C(/C(=C/O)N=Nc1ccccc1)c1ccco1,"inconclusive: 50.1 µM [inhibitor, partial curve, poor fit]",
O=C(O)c1ccccc1/C=N/Nc1ccc(S(=O)(=O)N2CCCC2)cc1[N+](=O)[O-],"inconclusive: 50.1 µM [inhibitor, partial curve]",
O=C(c1ccc2c(c1)OCO2)C1CCCN(Cc2cccn2-c2cccnc2)C1 (stereo not given),"inconclusive: 28.2 µM [inhibitor, partial curve]",
CC(C)c1cc(C(=O)NNC(=S)NCc2ccco2)c(O)c(C(C)C)c1,,inactive: -32.7%
ClCc1nc2ccccc2n1Cc1ccccc1,"inconclusive: 89.1 µM [inhibitor, single point]",
Cc1ccc(C)c(-n2cc(-c3ccccc3)nc2SCC(=O)Nc2ccccc2)c1,"inconclusive: 11.2 µM [inhibitor, full curve]",
N#C/C(=C/c1ccc(-c2cc([N+](=O)[O-])ccc2Cl)o1)C(N)=O,"inconclusive: 89.1 µM [inhibitor, single point]",
Cc1nc(N2CCCC2)ncc1C(=O)N1CCN(c2ccc(Cl)cc2)CC1,active: 79.4 µM,
COc1ccc(C(=O)NCCNc2ccccc2[N+](=O)[O-])cc1,"inconclusive: 50.1 µM [inhibitor, partial curve]",
O=C(Nc1ncn[nH]1)c1cc([N+](=O)[O-])ccc1Cl,"inconclusive: 89.1 µM [inhibitor, single point]",
Cc1nn(-c2ccccc2)cc1/C=N/NC(N)=S,,inactive: -17%
Cc1ccc(C(=O)n2c(-c3ccccc3)cnc2SCC(=O)Nc2ccc(C)cc2C)cc1,"inconclusive: 8.91 µM [inhibitor, full curve]",
O=C(Nc1nc(-c2cccs2)c(C(=O)C(F)(F)F)s1)c1ccco1,"inconclusive: 79.4 µM [inhibitor, single point]",
CC1C/C(=N\Nc2ccc(S(N)(=O)=O)cc2[N+](=O)[O-])CC(C)(C)C1 (stereo not given),"inconclusive: 39.8 µM [inhibitor, partial curve]",
CC(C)=CC(=O)OCc1csc(CC(=O)Nc2ccccc2C)n1,,inactive: -2.84%
CC(C)CCN(CC(=O)NCc1ccc(F)cc1)S(=O)(=O)c1ccccc1F,,inactive: 14.2%
Cc1ncc2c(c1OC(=O)c1ccc([N+](=O)[O-])cc1)COC(C)(C)OC2,"inconclusive: 79.4 µM [inhibitor, single point]",
O=c1c2c(-c3cccs3)csc2ncn1-n1cccc1,"inconclusive: 70.8 µM [inhibitor, single point]",
COC(=O)c1ccc(CSc2nnc(N)s2)cc1,,inactive: -3.61%
CCCCC(=O)OCC(=O)N1N=C(c2c[nH]c3ccccc23)C(O)C1c1ccc(OC)cc1 (stereo not given),"inconclusive: 79.4 µM [inhibitor, single point]",
Cc1c(C#N)c(N=CN(C)C)c(C(=O)c2ccc(Br)cc2)n1-c1ccccc1,"inconclusive: 89.1 µM [inhibitor, single point]",
